“And” between values parts separate entries of the source, which are not always exact repeats. Identical values can stand only once. In all, about 230,000 compounds went through this assay and about 3,600 (1.6%) were called active. The shares of active, inactive and inconclusive entries below differ from those in the screen. The call rests on the fitted dose curve; in most records, active means well fitted inhibition curve with a large enough effect (not every such curve was filed as active); inconclusive means small, poorly fitted or top-dose-only effect, or another doubt; inactive means no such curve, though single readings can be large or run the other way. Where the call is inconclusive, the potency comes from a doubtful curve fit.
What follows are compounds tested against Lysine-specific demethylase 4E (Homo sapiens) (UniProt B2RXH2) (assay: qHTS Assay for Inhibitors of Human Jumonji Domain Containing 2E (JMJD2E)). Conditions: JMJD2E catalytic domain, FDH-coupled NADH fluorescence (FDH is formaldehyde dehydrogenase); series mostly up to 57.1 µM.
Sequence of UniProt B2RXH2 (B2RXH2 whole entry, looked up, the tested form may be a part): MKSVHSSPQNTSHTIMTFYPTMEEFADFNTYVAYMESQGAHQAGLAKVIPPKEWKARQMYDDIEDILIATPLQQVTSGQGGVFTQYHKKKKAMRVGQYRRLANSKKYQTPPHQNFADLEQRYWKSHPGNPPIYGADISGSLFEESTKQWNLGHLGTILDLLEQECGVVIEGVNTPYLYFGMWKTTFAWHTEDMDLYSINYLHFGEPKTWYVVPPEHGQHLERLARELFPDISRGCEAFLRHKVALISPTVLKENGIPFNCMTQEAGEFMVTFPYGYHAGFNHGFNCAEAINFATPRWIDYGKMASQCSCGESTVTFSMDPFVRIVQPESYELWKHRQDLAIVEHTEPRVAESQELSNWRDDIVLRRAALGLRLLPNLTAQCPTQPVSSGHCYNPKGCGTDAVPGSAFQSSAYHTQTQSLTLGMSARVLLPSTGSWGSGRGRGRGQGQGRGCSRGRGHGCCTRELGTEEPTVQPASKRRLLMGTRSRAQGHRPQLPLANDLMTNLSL
`Cc1ccc(/C(N)=N/OC(=O)c2ccc(C)cc2Cl)cc1` was tested, and the Potency was “inactive”.
For `Fc1ccc(-c2nc(-c3cccs3)[nH]c2-c2ccc(F)cc2)cc1`, the Potency was inconclusive: 35.5 µM [inhibitor, single point].
`COc1cc(NC(=O)COC(=O)/C=C/c2ccccc2Cl)cc(OC)c1` was tested, and the Potency was inconclusive: 39.8 µM [inhibitor, single point].
For `O=C(c1ccccc1)c1ccc(N2CCNCC2)cc1`, the Potency was “inactive”.
`O=C(Nc1ccc(OC(F)(F)F)cc1)N1CCN(c2ccnc3cc(Cl)ccc23)CC1` was tested, and the Potency was inconclusive: 35.5 µM [inhibitor, single point].
`O=C(Nc1ccc2oc(-c3cccnc3)nc2c1)c1ccco1` was tested, and the Potency was inconclusive: 28.2 µM [inhibitor, partial curve].
`Clc1nc2sccn2c1/C=N/n1cnc2ccccc21` was tested, and the Potency was inconclusive: 35.5 µM [inhibitor, single point].
With `CN(Cc1ccon1)Cc1cn(Cc2ccccc2)nc1-c1ccc2c(c1)OCO2` the Potency was “inactive”.
`COc1ccc(NC2=C(Cl)C(=O)N(CCc3ccccc3)C2=O)c(OC)c1` was tested, and the Potency was “inactive”.
`O=C(O)CCc1nc2cc3ccccc3cc2[nH]1` was tested, and the Potency was inconclusive: 35.5 µM [inhibitor, single point].
`COc1ccc(-n2c3c(cc(C(=O)NC4CCSC4=O)c2=O)C(=O)CC(C)(C)C3)cc1` (stereo not given) was tested, and the Potency was inconclusive: 28.2 µM [inhibitor, single point].
In the case of `C[N+]1(CC(O)COCC2COc3ccccc3O2)CCOCC1` (stereo not given), the Potency is reported as “inactive”.
For `O=c1c2ccccc2cnn1-c1nc2ccccc2[nH]1`, the Potency was inconclusive: 35.5 µM [inhibitor, single point].
For `Cc1cccc(C#N)c1NC1=CC(=O)CC(C)(C)C1`, the Potency was inconclusive: 28.2 µM [inhibitor, single point].
With `CN(C)c1ccc(CNCCC(Cc2ccccc2)c2ccco2)cc1` (stereo not given) the Potency was “inactive”.
For `Cc1nnc(NC(=O)c2c(-c3ccccc3)noc2C)s1`, the Potency was “inactive”.
For `COc1cc(-c2nn3c(Cc4ccccc4)nnc3s2)cc(OC)c1OC`, the Potency was inconclusive: 28.2 µM [inhibitor, partial curve].
With `COc1ccc(-c2nc(CS(=O)CC(=O)NCc3ccco3)c(C)o2)cc1OC` (stereo not given) the Potency was inconclusive: 39.8 µM [inhibitor, single point].
`Cc1c(/C=C(\CC(=O)O)c2nc3ccccc3s2)cc(C#N)n1C` was tested, and the Potency was inconclusive: 25.1 µM [inhibitor, partial curve].
With `COc1ccc(/C(O)=C2/C(=O)C(=O)N(CCCN(C)C)C2c2ccc(C)o2)cc1Cl` (stereo not given) the Potency was “inactive”.
With `Cc1ccc(-c2cc(C(=O)OCn3nnc4ccccc4c3=O)c3ccccc3n2)cc1` the Potency was inconclusive: 5.01 µM [inhibitor, single point].
In the case of `Cc1cnc(C(=O)OCC(=O)Nc2ccc(C)c(S(=O)(=O)N3CCCCCC3)c2)cn1`, the Potency is reported as inconclusive: 35.5 µM [inhibitor, single point].
`CC1CCC(NS(=O)(=O)c2ccc3c(c2)n(C)c(=O)c(=O)n3C)CC1` (stereo not given) was tested, and the Potency was inconclusive: 31.6 µM [inhibitor, partial curve].
In the case of `NC(=O)c1c(-c2ccc(Cl)cc2Cl)csc1NC(=O)Cc1ccccc1`, the Potency is reported as “inactive”.
For `CCc1nnc(NC(=O)C2CCCO2)s1` (stereo not given), the Potency was “inactive”.
For `CCCC(=O)N1CCN(c2nc(CC(C)C)c3c(c2C#N)CCC3)CC1`, the Potency was inconclusive: 31.6 µM [inhibitor, partial curve].
With `CCOc1ccc2nc(NC3=NC(C)(C)C=C(C)N3)nc(C)c2c1` the Potency was “inactive”.
`CCCc1cc(C(F)(F)F)c(C#N)c(=O)[nH]1` was tested, and the Potency was inconclusive: 28.2 µM [inhibitor, partial curve].
`Cc1ccc(-c2csc(Cc3nc(-c4cc5ccccc5oc4=O)cs3)n2)cc1` was tested, and the Potency was inconclusive: 11.2 µM [inhibitor, partial curve].
For `COC(=O)C1CCN(C(=O)COc2ccc(Cl)cc2)CC1`, the Potency was “inactive”.
In the case of `CSc1ncc(Cl)c(C(=O)Nc2nnc(SC/C=C/c3ccccc3)s2)n1`, the Potency is reported as inconclusive: 35.5 µM [inhibitor, single point].
`COC(=O)CSc1ccc(C#N)c(SCC(=O)OC)c1` was tested, and the Potency was inconclusive: 28.2 µM [inhibitor, partial curve].
`Cc1ccc2sc(-c3ccc(NC(=O)c4cc(-n5cnnc5)ccc4Cl)cc3)nc2c1` was tested, and the Potency was inconclusive: 25.1 µM [inhibitor, partial curve].
In the case of `CS(=O)(=O)c1ccc2nc(NC(=O)c3ccc(S(=O)(=O)NCC4CCCO4)cc3)sc2c1` (stereo not given), the Potency is reported as inconclusive: 35.5 µM [inhibitor, single point].
For `CN1c2ccccc2N(C)C1c1c(O)ccc2ccccc12`, the Potency was inconclusive: 35.5 µM [inhibitor, single point].
With `CCN(Cc1ccccc1)S(=O)(=O)c1ccc2c(c1)NC(=O)CC(=O)N2` the Potency was “inactive”.
With `COc1cc(C(=O)Oc2cccc(Nc3ncnc4ccccc34)c2)cc(OC)c1OC` the Potency was inconclusive: 39.8 µM [inhibitor, single point].
`CCOC(=O)c1[nH]c2ccc(F)cc2c1NC(=O)C1=COCCO1` was tested, and the Potency was inconclusive: 22.4 µM [inhibitor, partial curve].
In the case of `N#Cc1c(N)n(C2CCCCC2)c2nc3ccccc3nc12`, the Potency is reported as inconclusive: 25.1 µM [inhibitor, partial curve].
For `C#CCOCCOCCOCCNc1nc(N2CCOCC2)nc(N2CCN(C(=O)[C@H](CCC(=O)O)n3cc(C(N)Cc4ccc(O)cc4)nn3)CC2)n1` (stereo not given in full), the Potency was “inactive”.
With `COc1cc2c(c(OC)c1O)C(=O)CO2` the Potency was inconclusive: 14.1 µM [inhibitor, partial curve].
In the case of `COc1ccc(NCc2ccc([N+](=O)[O-])s2)cc1`, the Potency is reported as inconclusive: 25.1 µM [inhibitor, single point].
With `Cc1cc2cc(C(c3nnnn3Cc3ccccc3)N3CCc4ccccc43)c(=O)[nH]c2cc1C` (stereo not given) the Potency was inconclusive: 28.2 µM [inhibitor, partial curve].
In the case of `Cc1cccc(C)c1Nc1nnc(SC/C(O)=C(\C#N)c2nc3ccccc3[nH]2)s1`, the Potency is reported as inconclusive: 28.2 µM [inhibitor, single point].
In the case of `COc1ccc(N(CC(=O)NCc2ccccc2OC)S(=O)(=O)c2ccccc2[N+](=O)[O-])c(OC)c1`, the Potency is reported as “inactive”.
In the case of `Clc1ccc(N2N=C(c3cccs3)CC2c2ccco2)cc1` (stereo not given), the Potency is reported as inconclusive: 28.2 µM [inhibitor, partial curve].
In the case of `COc1ccc(S(=O)(=O)N(CC(=O)Nc2ccc(S(=O)(=O)N3CCOCC3)cc2)c2ccccc2)cc1`, the Potency is reported as “inactive”.
`CCOCCCn1c(=N)c(C(=O)NCc2ccc3c(c2)OCO3)cc2c(=O)n3cccc(C)c3nc21` was tested, and the Potency was inconclusive: 31.6 µM [inhibitor, single point].
In the case of `Cc1cccc(OCCn2c(=S)[nH]c3ccccc32)c1`, the Potency is reported as “inactive”.
For `COc1ccccc1Nc1nnc(SCC(=O)Nc2nc(-c3ccc(F)cc3)cs2)s1`, the Potency was “inactive”.
With `CC(C)CCn1c(=O)c2ccccc2n2c(CCl)nnc12` the Potency was inconclusive: 31.6 µM [inhibitor, single point].
For `COC(=O)c1ccc2ccn(CC(=O)NC3CCCCC3)c2c1`, the Potency was inconclusive: 3.98 µM [inhibitor, full curve].
In the case of `c1ccc(CSc2ncn[nH]2)nc1`, the Potency is reported as inconclusive: 22.4 µM [inhibitor, single point].
With `COc1cc(C2c3c([nH]c(=O)[nH]c3=O)Nc3ccc4ccccc4c32)cc(OC)c1OC` (stereo not given) the Potency was inconclusive: 28.2 µM [inhibitor, partial curve].
For `Cc1cc(Oc2ccc(N)cn2)ccc1Cl`, the Potency was inconclusive: 35.5 µM [inhibitor, single point].
For `CCOc1ccc(C(C#N)N2CCOCC2)cc1OC` (stereo not given), the Potency was “inactive”.
For `COc1ccccc1/C=N/NC(=O)c1ccc(CN2C(=O)c3cccc4cccc2c34)cc1`, the Potency was inconclusive: 35.5 µM [inhibitor, partial curve].
With `O=C(c1cccc(-c2nnc(-c3ccccc3)o2)c1)N1CCCCCC1` the Potency was “inactive”.
`CNC(=O)c1cc2ccc(OC)cc2oc1=O` was tested, and the Potency was inconclusive: 25.1 µM [inhibitor, partial curve].
For `O=C(O)C1(NS(=O)(=O)c2ccc(Cl)cc2)CCCCC1`, the Potency was “inactive”.
For `CCCOc1ccc2c3c(c(=O)oc2c1OCCC)CCC3`, the Potency was inconclusive: 39.8 µM [inhibitor, single point].
`COC(=O)CCC(=O)OC1(C)C(=O)C2=CN(C3CCCC3)C(c3ccc(OC)cc3)=CC2=C(Br)C1=O` (stereo not given) was tested, and the Potency was inconclusive: 8.91 µM [inhibitor, partial curve] and inconclusive: 3.98 µM [inhibitor, single point].
`C/C(=N\Nc1cc(C)nc(-c2ccccc2)n1)c1cccc([N+](=O)[O-])c1` was tested, and the Potency was “inactive”.
With `COC(=O)c1ccc(CSc2ccc3nnc(-c4ccc(F)cc4)n3n2)o1` the Potency was inconclusive: 28.2 µM [inhibitor, partial curve].
With `COc1cc(/C=N/n2c(-c3cc(C)[nH]n3)n[nH]c2=S)ccc1O` the Potency was “inactive”.
For `CC(C)(C)c1ccc(-c2nc3c(C#N)c(-c4ccc5c(c4)OCO5)ccn3n2)cc1`, the Potency was inconclusive: 3.55 µM [inhibitor, partial curve].
With `COC(=O)[C@H]1Cc2c([nH]c3ccccc23)CN1C(=O)COc1ccc2c(C)cc(=O)oc2c1` the Potency was inconclusive: 35.5 µM [inhibitor, single point].
With `CCOC(=O)c1ccc2ncc(C(=O)OCC)c(NCCCN3CCOCC3)c2c1` the Potency was inconclusive: 39.8 µM [inhibitor, single point].
In the case of `CNc1ccc(Cl)cc1C(N)=O`, the Potency is reported as inconclusive: 17.8 µM [inhibitor, partial curve].
For `COC(=O)C1=C(C)N(CCc2ccc(OC)c(OC)c2)C(=O)/C1=C\N(C)C`, the Potency was “inactive”.
Further: nearly all actives have a fitted effect of over 50% in size.
Potency means the concentration at half of the fitted maximal effect; tags describe the fitted curve by direction and shape.
